Whole data set: some 18,000 sequences, median “TetR repression strength (sort-seq, GFP reporter)” near 0.23, cut for the highest 2% near 0.68. This is one part of the list.

The target in the assay is TetR (class B, Tn10) (UniProt P04483). The experiment in a line: TetR repression strength (sort-seq, GFP reporter) (relative to tetO2 = 1); higher = stronger repression. Conditions: E. coli. The method in brief: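 Three independent transformations of E. coli SIG10-MAX were made with a low-copy plasmid library randomizing eight operator positions between a constitutive promoter and sfGFP, with constitutive TetR. Following 5 h at 37 °C in LB plus 50 µg/mL chloramphenicol, 10^6 cells went through FACS into 13 fluorescence bins, and each bin was sequenced by Illumina. Repression strength was defined as the top bin index plus one minus the read-weighted mean bin, divided by the unaltered operator's value. Averages included only members reaching ≥30 reads in all replicates with a CV ≤0.5.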
Chain of UniProt P04483 (P04483 whole entry): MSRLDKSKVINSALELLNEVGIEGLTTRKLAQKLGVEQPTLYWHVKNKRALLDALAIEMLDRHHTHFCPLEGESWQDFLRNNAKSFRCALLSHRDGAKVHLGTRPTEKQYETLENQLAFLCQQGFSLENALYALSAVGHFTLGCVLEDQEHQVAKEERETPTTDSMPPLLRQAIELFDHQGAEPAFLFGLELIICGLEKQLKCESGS
With TCCCCATCAGTAAACGAGA, the TetR repression strength is 0.221.

Sequence TCCCTCAGAGTTGAAGAGA gave a TetR repression strength of 0.0503. With TCCCCACTAGTTCACGAGA the figure was 0.422; with TCCCGTCTAGTCCGCGAGA, 0.402. Next, TCCCCTCAAGTAAGTGAGA: 0.116. As to TCCCCGTGAGTACACGAGA, the TetR repression strength was 0.255. With TCCCTGCAAGTACTCGAGA the figure was 0.341; with TCCCCTGTAGTGATAGAGA, 0.387; with TCCCATCGAGTGGGTGAGA, 0.34. In turn, TCCCTAGCAGTCTTGGAGA had a TetR repression strength of 0.0869. TCCCTACTAGTGTGGGAGA yielded a TetR repression strength of 0.229. TCCCAGGCAGTTTCCGAGA displayed a TetR repression strength of 0.0123. TCCCTTGAAGTATGTGAGA came in with a TetR repression strength of 0. Take TCCCCGATAGTGGCAGAGA: the TetR repression strength was found to be 0.506.

TCCCTGAAAGTATTAGAGA gave a TetR repression strength of 0.263. With TCCCAGGGAGTCGTAGAGA the figure was 0.289; with TCCCTCGTAGTGTGAGAGA, 0.34; with TCCCCAGCAGTGACGGAGA, 0.286. With TCCCTGGCAGTCCACGAGA the figure was 0.156; with TCCCAATTAGTCGATGAGA, 0.51. TCCCTGAAAGTGTACGAGA showed a TetR repression strength of 0.0109. Next, TCCCGGGGAGTCCGCGAGA: 0.228; TCCCCTTGAGTGTTTGAGA: 0.302. With TCCCGCGCAGTTGAGGAGA the figure was 0.251; with TCCCGCATAGTACCTGAGA, 0.562. With TCCCTTAGAGTTGCTGAGA the figure was 0.584; with TCCCCCATAGTCGACGAGA, 0.825.

For TCCCTACGAGTGGTCGAGA, the TetR repression strength amounted to 0.204. TCCCCCGGAGTCGAGGAGA showed a TetR repression strength of 0.203. Next, TCCCTATTAGTGAAGGAGA: 0.273. Next, TCCCACAGAGTACTAGAGA: 0.422; TCCCACTAAGTGCCAGAGA: 0.21. With TCCCGTACAGTGGTCGAGA the figure was 0.162. The sequence TCCCGGTAAGTAGAGGAGA yielded a TetR repression strength of 0.171. On to TCCCGACTAGTGTGGGAGA, for which the TetR repression strength is 0.274. For TCCCCCTGAGTGGTGGAGA, the TetR repression strength stood at 0.359. TCCCAGTTAGTGTTAGAGA displayed a TetR repression strength of 0.25. Regarding TCCCTAGGAGTGGGCGAGA, the TetR repression strength amounted to 0.146. As for TCCCGCTGAGTACTCGAGA, the TetR repression strength is 0.5. For TCCCCCAGAGTTCACGAGA, the TetR repression strength is 0.47. In the case of TCCCGGCCAGTTGCCGAGA, the TetR repression strength came to 0.149. TCCCCCAAAGTGTTTGAGA registered a TetR repression strength of 0.145. On to TCCCTGTGAGTGGGTGAGA, for which the TetR repression strength is 0.412. On to TCCCGGCCAGTGTCGGAGA, for which the TetR repression strength came out at 0.435. The sequence TCCCCGCGAGTCGCCGAGA displayed a TetR repression strength of 0.254. With TCCCGGCTAGTCGCTGAGA, the TetR repression strength turned out to be 0.165.

The sequence TCCCCTATAGTATTAGAGA came in with a TetR repression strength of 0.126. With TCCCGCAAAGTCCGTGAGA the figure was 0.113; with TCCCCGGGAGTCGGGGAGA, 0.356; with TCCCAATAAGTGTATGAGA, 0.207. Take TCCCGACAAGTGAGTGAGA: the TetR repression strength turned out to be 0.163.

As to TCCCCCACAGTACGAGAGA, the TetR repression strength turned out to be 0.115. As for TCCCATATAGTAGCGGAGA, the TetR repression strength turned out to be 0.191. With TCCCGGGTAGTGGCCGAGA, the TetR repression strength came to 0.153. The sequence TCCCTCAGAGTGGGTGAGA had a TetR repression strength of 0.0984. Consider TCCCGGCGAGTTGTAGAGA, for which the TetR repression strength was found to be 0.425.

The sequence TCCCAGATAGTCGCGGAGA displayed a TetR repression strength of 0.108. With TCCCCTCGAGTTCGGGAGA the figure was 0.178; with TCCCTTGCAGTCCGCGAGA, 0.258; with TCCCGCTTAGTACATGAGA, 0.012. Next, TCCCGCGGAGTTAGGGAGA: 0.207.

TCCCCGACAGTTGCGGAGA gave a TetR repression strength of 0.0545.

On to TCCCCGTTAGTTAGAGAGA, for which the TetR repression strength worked out at 0.207. With TCCCTGGGAGTCCGGGAGA the figure was 0.193. Next, TCCCTACCAGTAAAAGAGA: 0.273; TCCCCTGAAGTGGTAGAGA: 0.393; TCCCGTCCAGTCTGAGAGA: 0.152.

TCCCTGTGAGTAAGCGAGA displayed a TetR repression strength of 0.178.

In turn, TCCCCCCGAGTAGGGGAGA gave a TetR repression strength of 0.138.

TCCCATAAAGTGGGCGAGA gave a TetR repression strength of 0.0878.

TCCCTTAGAGTGGTCGAGA came in with a TetR repression strength of 0.215. As to TCCCTTACAGTGCGTGAGA, the TetR repression strength was determined as 0.183. Next, TCCCGTGCAGTGCTGGAGA: 0.282; TCCCGGTTAGTGAAAGAGA: 0.285. The sequence TCCCTTTTAGTCAATGAGA displayed a TetR repression strength of 0.285. TCCCTGGAAGTGATCGAGA came in with a TetR repression strength of 0.203. The sequence TCCCAGGTAGTAAGGGAGA came in with a TetR repression strength of 0.249. Next, TCCCGTGTAGTGAGTGAGA: 0.225; TCCCCATCAGTTCACGAGA: 0.274; TCCCGGGGAGTGCACGAGA: 0.193. Next, TCCCCAGTAGTGTGTGAGA: 0.417; TCCCTAAGAGTGACTGAGA: 0.612. In turn, TCCCGTACAGTAGTCGAGA showed a TetR repression strength of 0.269.

Sequence TCCCGTTGAGTTTACGAGA gave a TetR repression strength of 0.207.

TCCCGTCGAGTGGCCGAGA yielded a TetR repression strength of 0.389. Next, TCCCGTTCAGTATCGGAGA: 0.241. TCCCCGTTAGTACACGAGA: the TetR repression strength stood at 0.162. Next, TCCCCCAGAGTAGTTGAGA: 0.471; TCCCCTGGAGTTGGGGAGA: 1.09.

The sequence TCCCATGGAGTAGCGGAGA showed a TetR repression strength of 0.297. With TCCCGTTGAGTGTACGAGA the figure was 0.101. With TCCCTCGAAGTTAGGGAGA the figure was 0.138; with TCCCTAGGAGTCAGCGAGA, 0; with TCCCTTCTAGTCCTGGAGA, 0.354. With TCCCAAGTAGTGAAGGAGA the figure was 0.417. Sequence TCCCTGCGAGTGAAGGAGA yielded a TetR repression strength of 0.325. On to TCCCTCGGAGTAGACGAGA, for which the TetR repression strength is 0.198.

The sequence TCCCATAAAGTCATTGAGA came in with a TetR repression strength of 0.452.

The sequence TCCCAACTAGTATGAGAGA gave a TetR repression strength of 0.361.

Turning to TCCCTGATAGTTGGTGAGA, the TetR repression strength amounted to 0.289. For TCCCGTTAAGTCACGGAGA, the TetR repression strength stood at 0.18. With TCCCTTCGAGTTCGTGAGA the figure was 0.32.

The values above are taken from a collection of fitness landscapes (doi:10.1038/s41467-024-54723-y).
